Assay results as given in PMC4336329 (PLoS ONE, 2015).
In all, about 310,000 compounds went through this assay and about 14,000 (4.5%) showed an effect of 50% or more. Effects have a minus sign here. Some of the results follow.

molecular target: human ether-à-go-go-related gene (hERG) potassium channel (human, UniProt Q12809); test: primary screen, population patch clamp on CHO cells stably expressing hERG
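Also: peak tail current of the secondary pulse compared with the same well before compound.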

Sequence of human ether-à-go-go-related gene (hERG) potassium channel (Q12809 whole entry, looked up): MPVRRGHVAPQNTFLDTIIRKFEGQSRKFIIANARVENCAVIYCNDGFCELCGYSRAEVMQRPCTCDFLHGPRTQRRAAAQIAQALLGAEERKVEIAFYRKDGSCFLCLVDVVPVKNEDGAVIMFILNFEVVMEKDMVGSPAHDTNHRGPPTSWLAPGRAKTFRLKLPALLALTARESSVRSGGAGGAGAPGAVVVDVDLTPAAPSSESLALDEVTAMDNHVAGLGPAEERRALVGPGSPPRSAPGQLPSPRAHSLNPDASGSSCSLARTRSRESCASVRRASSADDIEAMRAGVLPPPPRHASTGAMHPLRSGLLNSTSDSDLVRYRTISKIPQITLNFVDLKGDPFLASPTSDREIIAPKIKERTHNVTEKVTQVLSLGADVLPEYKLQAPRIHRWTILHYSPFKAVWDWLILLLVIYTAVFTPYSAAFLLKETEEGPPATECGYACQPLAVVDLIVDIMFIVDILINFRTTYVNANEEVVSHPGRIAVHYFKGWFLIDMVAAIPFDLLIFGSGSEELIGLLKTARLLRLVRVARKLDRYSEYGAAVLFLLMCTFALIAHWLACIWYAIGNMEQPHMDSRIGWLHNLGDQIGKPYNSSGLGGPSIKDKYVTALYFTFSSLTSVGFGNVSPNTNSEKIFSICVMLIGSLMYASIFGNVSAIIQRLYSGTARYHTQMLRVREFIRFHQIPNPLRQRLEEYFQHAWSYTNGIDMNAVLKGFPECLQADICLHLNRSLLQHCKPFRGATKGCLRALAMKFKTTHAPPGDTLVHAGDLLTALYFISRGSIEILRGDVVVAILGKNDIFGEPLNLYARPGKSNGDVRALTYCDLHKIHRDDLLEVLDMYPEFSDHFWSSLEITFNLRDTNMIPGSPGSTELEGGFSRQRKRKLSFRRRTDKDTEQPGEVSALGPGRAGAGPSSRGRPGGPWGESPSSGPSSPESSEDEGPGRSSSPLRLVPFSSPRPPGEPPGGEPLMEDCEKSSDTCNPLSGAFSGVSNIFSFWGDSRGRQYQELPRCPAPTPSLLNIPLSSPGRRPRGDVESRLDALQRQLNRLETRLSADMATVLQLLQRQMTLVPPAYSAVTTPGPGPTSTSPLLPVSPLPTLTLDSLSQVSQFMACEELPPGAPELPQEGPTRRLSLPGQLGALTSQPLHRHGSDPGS

Row | Structure (SMILES) | hERG current change (%, negative = inhibition) at 10uM [%]
1 | COc1ccc([C@H]2CC(=O)C=C(c3ccc4ccccc4c3)C2)cc1OC | 13.9
2 | Cc1cc(C)c(NC(=O)CN2CCCCCC2)c(C)c1 | -7.47
3 | COc1ccc(NC(=O)CSc2ccc3c(c2)OCCO3)cc1OC | 15
4 | Cc1ccc(CNC(=O)CNS(=O)(=O)c2ccc3c(c2)C(C)(C)C(=O)N3C)cc1 | -3.42
5 | CCN(CC(=O)Nc1c(F)cccc1F)C(=O)CCOc1ccc(C)cc1 | -2.71
6 | COC(=O)c1sccc1NC(=O)Nc1cccc(Cl)c1Cl | 10.9
7 | CCC1CCCCN1CCCNC(=O)C1CCCN(c2ncnc3c2nc2n3CCCCC2)C1 (stereo not shown) | -0.0638
8 | CC(C)(C)NC(=O)NC(=O)COC(=O)COc1ccc2c(c1)CCC2 | 0.441
9 | CC12CN3CCN(CC(C3)/C1=N/NC(=O)Nc1ccccc1)C2 | 14.7
10 | O=S(=O)(NCC(c1cccnc1)N1CCN(Cc2ccccc2)CC1)c1ccccc1 (stereo not shown) | -68.9
11 | Cc1c(C(=O)[O-])oc2c1C(O)CC(C)(C)C2.[Na+] (stereo not shown) | 9.51
12 | NC(=O)Cn1c(=O)oc2ccccc21 | 14.1
13 | O=C(CSC(=S)N1CCOCC1)c1cc(Br)cc(Br)c1O | -17.3
14 | CCCCN(Cc1ccccc1)C(=O)c1cnc2n(c1=O)CCS2 | -0.608
15 | CN1CCC(NC(=O)c2cccc(Oc3ccccc3)c2)CC1 | -8.93
16 | CC1CCCC(NC(=O)CCn2c(=S)oc3ccccc32)C1C (stereo not shown) | 15.8
17 | Cc1occc1C(=O)N/N=C/c1ccc[nH]1 | 12.9
18 | CCOC(=O)CC1CCCCN1Cc1cn(C)nc1-c1ccc2c(c1)OCCO2 (stereo not shown) | -11.2
19 | CCOC(=O)c1cnc(SCC(=O)N2CCc3ccccc32)nc1N | 1.07
20 | O=c1oc2ccccc2cc1-c1csc(Cc2nc(-c3ccc(Br)cc3)cs2)n1 | -1.64
21 | O=S1(=O)CCN(Cc2ccccc2C(F)(F)F)CC1 | 15.4
22 | COCCCNC(=O)c1cc2c(-c3cccc(OC)c3)nn(C)c2s1 | -5.59
23 | Cc1cc(NC(=O)C(C)C)ncc1NC(=O)Cc1ccccc1 | 12.3

Row | Structure (SMILES) | hERG current change (%, negative = inhibition) at 10uM [%]
24 | Cc1ccc(C(=O)CSc2ncnc3sc4c(c23)CCCC4)cc1 | -0.316
25 | COC(=O)N1CCN(c2ccc(OC)cc2)CC1 | 4.33
26 | COc1ccc(C2CC(=O)N(C)c3ccccc3S2)cc1 (stereo not shown) | -12.9
27 | CC(C)Oc1ccc(C(=O)OC(C)C(=O)NC2CCCCC2C)cc1 (stereo not shown) | 5.69
28 | CCN(CCn1cccn1)C(=O)CC1C(=O)NCCN1CC1CCCCC1 (stereo not shown) | 15.4
29 | CSc1cccc(NC(=O)CSc2nc3ccccc3o2)c1 | -0.335
30 | COc1cc(OC)c(N(C)S(=O)(=O)c2cccc(C(=O)OCC(=O)NCc3ccco3)c2)cc1Cl | -6.99
31 | COCCn1c(SCC(=O)NCc2ccc(F)cc2)nc2ccccc21 | -27.8
32 | CCOC(=O)C1=C(COC(=O)/C=C/c2ccccc2F)NC(=O)NC1C (stereo not shown) | 2.58
33 | O=C(COc1ccccc1)NCC(=O)N1CCCCCC1 | 7.21
34 | Cc1ccc2nc(C)cc(C(=O)N3CCCC(N4CCN(c5ccccc5C)CC4)C3)c2c1 (stereo not shown) | -42.7
35 | O=C(c1ccc2c(c1)OCO2)C1CCCN(Cc2cc(F)ccc2-n2cccn2)C1 (stereo not shown) | -74.9
36 | O=C(N/N=C/c1cc(Cl)cc(Cl)c1O)c1ccncc1 | -12.1
37 | O=c1c2ccccc2nc2oc3ccccc3n12 | 0.394
38 | CCOC(=O)C1CCN(C(=O)c2cc(S(=O)(=O)N3CCOCC3)c(Cl)cc2Cl)CC1 | -50.1
39 | O=C(Nc1ccc(N2CCCCC2)c(Cl)c1)c1cccnc1 | 0.712
40 | CC1c2cc3c(cc2CCN1C(=O)c1cccc(Cl)c1)OCCCO3 (stereo not shown) | -15.2
41 | CCOC(=O)c1c(CN2CCCCC2)n(C)c2ccc(OC)c(S(=O)(=O)c3ccccc3)c12 | -47.2
42 | COc1cccc(NC(=O)COC(=O)c2ccco2)c1 | 9.28
43 | COc1cc(C(=O)CSc2nccn2C)cc(OC)c1OC | 25.5
44 | CCOc1ccc(C(=O)NCC(=O)N2CCc3ccccc3C2)cc1OCC | 4.5
45 | Cc1nc(NC(=O)/C=C/c2ccccc2)n[nH]1 | 10.1
46 | Cc1ccc(CNC(=O)c2ccc(CS(=O)Cc3cccc(Cl)c3)o2)cc1 (stereo not shown) | -21.5

Row | Structure (SMILES) | hERG current change (%, negative = inhibition) at 10uM [%]
47 | O=C1/C(=C\c2ccco2)SC(=S)N1Cc1ccccc1 | 10.8
48 | Cc1ccnc(NC(=S)NC(=O)/C=C/c2ccccc2)c1 | 4.52
49 | CC(=O)N1CCN(c2ccccc2NC(=O)c2cccs2)CC1 | -43.8
50 | Cc1nc2c(ccc3c2ccc2nc(C)sc23)s1 | 14.2
51 | Cn1c(=O)[nH]c(=O)c2c1nc1n2CCN1Cc1ccccc1 | 14.7
52 | CC(C)Cn1c(N)c(C(=O)CSc2nc3ccccc3c(=O)n2CCCN2CCOCC2)c(=O)n(C)c1=O | -22.2
53 | CC(O)c1nc2ccccc2n1CC(=O)N1CCN(c2ccccc2)CC1 (stereo not shown) | 18
54 | CCC(C)[C@H]1CNCCN1CCCc1cc(OC)c(OC)c(OC)c1 (stereo partly shown) | 4.12
55 | Cc1nn(CC(=O)c2ccc(Cl)s2)c(C)c1[N+](=O)[O-] | -1.58
56 | Cc1ccc(NCc2nnc(SCC(=O)Nc3nnc(C)s3)n2C)cc1 | -1.72
57 | CCCCn1nc(-c2ccccc2)c2nc3ccccc3nc21 | 5.86
58 | CCCOc1ccc(S(=O)(=O)NCCN2CCOCC2)c2ccccc12 | -23.3
59 | O=C(Nc1cc(S(=O)(=O)N2CCOCC2)ccc1N1CCOCC1)c1ccc(S(=O)(=O)N2CCCCC2)cc1 | -1.72
60 | Cc1ccc(C(=O)N/N=C\C2CC=CCC2)cc1[N+](=O)[O-] (stereo not shown) | -4.86
61 | Cc1ccc(CCN2CC(C(=O)NCCN3CCOCC3)CC2=O)cc1 (stereo not shown) | 11.9
62 | COc1ccc(N(C(=O)c2ccco2)C(C(=O)NC2CCCC2)c2ccco2)cc1OC (stereo not shown) | 8.03
63 | COc1ccc(OC)c(NS(=O)(=O)c2ccc(-c3coc(C)n3)cc2)c1 | 0.503
64 | CN(C)c1ccc(P(=O)(OC2CCCCC2)C(O)c2ccncc2)cc1 (stereo not shown) | 11.2
65 | COc1ccc(-n2c3c(c(=O)[nH]c2=O)C(NC(=O)c2ccncc2)(C(F)(F)F)C(=O)N3)cc1 (stereo not shown) | 18.1
66 | O=C(NCCCN1CCOCC1)c1ccc(NS(=O)(=O)c2ccccc2)cc1 | 17
67 | Cl.O=C(CSc1cccc[n+]1[O-])Nc1ccc(N2CCOCC2)cc1 | 6.17
68 | Cc1ccc(/C=N/NC(=O)c2nn(C)cc2Cl)cc1 | -10.9
69 | COCCn1ccc(O)c(Cc2ccccc2)c1=O | 15.5

Row | Structure (SMILES) | hERG current change (%, negative = inhibition) at 10uM [%]
70 | CCN(CC)S(=O)(=O)c1ccc(C(=O)C(C#N)c2ccccn2)cc1 (stereo not shown) | 12.4
71 | CCOC(=O)[C@H]1[C@H]2COc3ccc(C)cc3[C@@H]2N2C(=O)CN(CC3CCCO3)C(=O)[C@@]12C (stereo partly shown) | 7.72
72 | COc1ccc(NC(=O)CCCc2nnc3n(C)c(=O)c4sccc4n23)cc1 | -14
73 | CCc1ccccc1NC(=O)CN(C)C(=O)COc1ccc(C)nc1[N+](=O)[O-] | -6.74
74 | COc1ccccc1C/C(N)=N/OC(=O)c1cccs1 | 12.1
75 | COc1ccccc1NC(=O)C1=C(C)Nc2nnnn2C1c1ccccc1OC (stereo not shown) | 9.82
76 | CC(C)(CNC(=O)c1cccs1)CNC(=O)c1cccs1 | -3.99
77 | Cn1cccc1/C=N/N1CCN(c2ccccn2)CC1 | -1.71
78 | Cl.c1ccc(CNc2nc(N3CCN(Cc4ccccc4)CC3)nc3ccccc23)cc1 | -65.9
79 | O=C(NC1CCCCC1)c1n[nH]c2c1CCCCC2 | 2.43
80 | Cc1cnc(C(=O)OCC(=O)N2c3ccccc3NC(=O)C2(C)C)cn1 | 10.4
81 | Cc1cc([N+](=O)[O-])cc2ncccc12 | -2.74
82 | CCOc1cc(-n2ncc(C#N)c2N)nc(SC)n1 | 1.05
83 | O=C(Cc1cccc2ccccc12)Nc1ccccc1 | 11.8
84 | COc1ccc2[nH]c(C)c(CCN3C(=O)C4CC=CCC4C3=O)c2c1 (stereo not shown) | 3.08
85 | Nc1nc(SCc2ccc(Cl)cc2Cl)nc2nc3c(cc12)CCCC3 | 4.21
86 | COc1ccccc1C(=O)NCC(=O)NCC1(N2CCCCC2)CCCCC1 | 0.491
87 | COc1nc(-c2ccccc2)c2cc(Br)ccc2n1 | -0.224
88 | O=C(Nc1nc(COc2ccccc2)cs1)c1ccccc1F | 24.9
89 | COC(=O)c1ccc(/C=N/Nc2nc(C)c(C)s2)cc1 | 3.14
90 | COc1ccc(C(CNC(=O)C2CC(=O)N(Cc3ccccc3)C2)N2CCCC2)cc1 (stereo not shown) | 7.72
91 | O=C(NCc1ccncc1)C(=O)Nc1nccs1 | 9.87
